Assay results from PubChem BioAssay AID1963576 (National Center for Advancing Translational Sciences (NCATS), 2024).
The campaign covered roughly 46,000 compounds. About 60 (0.1%) were called active. Inconclusive results (about 3%) are left out. Calls come from the whole dose curve; as a rule, active = well fitted inhibition curve with a large enough effect; inconclusive = small, poorly fitted or top-dose-only effect; inactive = no such curve, though single readings can be large or run the other way. Some of the results follow.

Test: Primary qHTS assay for Inhibitors of ovarian cancer metastasis using an organotypic tumor microenvironment (TME) model.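 For activity change, negative = inhibition: plate controls were DMSO wells for no effect and tomatine positive control wells for full effect.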 Note: nearly all actives have a fitted effect of over 65% in size.
Conditions: SKOV3ip1-GFP adhesion/invasion on 3D omental model, fluorescence; series mostly up to 45.8 µM; activity change, negative = inhibition: at the top concentration
Summary of the method: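 A 3D layer of primary human omental fibroblasts, mesothelial cells, fibronectin and collagen I, grown 48 hr, received SKOV3ip1-GFP cells in serum-free medium plus compounds at 0.36-46 umol/L. After 2 hr RT and 16 hr 37 C, fixed adherent GFP cells were counted; normalized to DMSO and tomatine.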

Activity change, negative = inhibition, inactive:
CCN(C(=O)Cn1cc(C(=O)c2ccc(F)cc2)c(=O)c2ccc(C)nc21)c1cccc(C)c1 -16%
COc1ccc(OC)c(NC(=O)CCc2c(C)nc3c(c(C)nn3C(C)(C)C)c2C)c1 5.62%
CC(C)c1ccc2occ(CC(=O)Nc3cccc(C(F)(F)F)c3)c2c1 -12.5%
Cc1cc(C)c2c(CC(=O)Nc3c(C(=O)c4ccc(F)cc4)oc4ccccc34)coc2c1 0.735%
Cc1ccc2c(c1)CC(C)N2S(=O)(=O)c1nnc(NC(=O)CC(C)C)s1 (stereo unspecified) -7.54%
CCCCOc1ccc(CNC(=O)c2cnc3sc(N4CCC(C)CC4)nn3c2=O)cc1 -4.47%
CC(C)c1nc2ccc(C(=O)NCCCN3CCN(c4ccc(F)cc4)CC3)cc2o1 2.62%
COc1ccccc1CNC(=O)CCc1c(C)nn(-c2ccc(N3CCCC3)nn2)c1C -7.81%
Cc1cc(NC(=O)CSc2nc3c([nH]c4ccccc43)c(=O)n2-c2ccc(Cl)cc2)no1 17.8%
Cc1cc(=O)n(Cc2ccccc2Cl)c2c1c(C)nn2-c1ccccc1 -4.14%
COc1ccccc1C(=O)Nc1ccc(OCc2cc(=O)n3cccc(C)c3n2)cc1 -13.4%
CCc1ccc(NC(=O)c2ccc3c(O)c(S(=O)(=O)c4ccccc4)c(=O)[nH]c3c2)cc1 2.11%
Cc1c(NC(=O)c2ccc(Cl)cc2)cc(C(C)C)c(O)c1S(=O)(=O)c1ccccc1 -5.65%
CCn1c2c(c(=O)n3ncc(C(=O)Nc4ccc(F)cc4Cl)c13)CN(Cc1ccc(OC)cc1)CC2 4.13%
CCOc1ccc(NC(=O)c2oc(=O)c3ccccc3c2-c2ccc(C)cc2)cc1 1.81%
Cc1cccc(OCc2nnc(-c3ccccc3)o2)c1 9.42%
CCN1CCN(C(=O)c2ccc3c(c2)N(Cc2ccc(F)cc2)C(=O)c2ccccc2S3(=O)=O)CC1 5.22%
O=c1oc2ccc(F)cc2cc1-c1nc(-c2cccs2)no1 5.78%
Cc1ccc(CSc2nc3ccsc3c(=O)n2CCC(C)C)cc1 5.66%
COc1ccc(CC(=O)Nc2nnc3n2CCS3)cc1 -2.75%
O=C(Nc1ccc(Br)cc1)c1ccc(Cl)c(S(=O)(=O)N2CCCCCC2)c1 -5.13%
COC(=O)CN1C(=O)C(C)(C)c2cc(S(=O)(=O)NCc3ccc(Cl)cc3)ccc21 -7.5%
CCCCN(CCCC)C1=C(C(=O)c2ccccc2)N(CC)S(=O)(=O)c2ccccc21 9.92%
Cc1ccc2scc(N3CCN(c4cccc(C(F)(F)F)c4)CC3)c(=O)c2c1 -7.6%
Cc1ccn2c(Nc3c(C)cccc3C)c(-c3ccc(Cl)s3)nc2c1 9.98%
Cc1cc(C)cc(NC(=O)C2CCN(S(=O)(=O)c3c(C)noc3/C=C/c3ccco3)CC2)c1 -3.2%
Cc1ccc(Cl)cc1NC(=O)C(NS(=O)(=O)c1ccc2c(c1)CCC(=O)N2)c1ccccc1 (stereo unspecified) 2.19%
COc1ccc(-c2cn3nc(N4CCCC(C(=O)NCCCOC(C)C)C4)sc3n2)cc1 (stereo unspecified) -14.9%
CCC(=O)N1CCc2cc(S(=O)(=O)NC(Cc3ccccc3)C(=O)NCc3cccc(OC)c3)ccc21 (stereo unspecified) 3.25%
COc1ccc2cc(CNc3ccccc3)c(=O)n(CC(=O)Nc3ccc(C(C)=O)cc3)c2c1 4.22%
COc1cccc(CNC(=O)CCn2c(=O)c3cccn3c3cccnc32)c1 7.36%
CC1=C(c2ccc(F)cc2)S(=O)(=O)NC1=NCc1ccccc1Cl -1.23%
CCc1ccc(NCc2cc3cc(OC)c(OC)cc3n(CC(=O)Nc3ccc(F)cc3)c2=O)cc1 40.2%
Cc1cccc(NC(=O)CC2C(=O)OCCN2Cc2ccccc2)c1 (stereo unspecified) -14.5%
Cc1ccc(C(=O)CSc2nc(-c3ccccc3)nc3c2CCCC3)cc1C -6.33%
Cc1ccc(NC(=O)C2CCN(C(=O)c3cnn(-c4ccccc4)c3-n3cccc3)CC2)cc1Cl 13.9%
Cc1ccc(CSc2nc3cccnc3n2Cc2ccc(C(=O)NCc3cccs3)cc2)cc1 1.25%
Cc1nc2nc(NC(=O)C(C)C)[nH]n2c(=O)c1Cc1ccccc1 -1.52%
CC(=O)c1ccc(NC(=O)CC2Sc3ccccc3NC2=O)cc1 (stereo unspecified) -12.2%
COc1ccc(-c2csc3ncnc(Nc4cccc(F)c4)c23)cc1 2.61%
Cc1cc(Oc2nc3ccccn3c(=O)c2/C=C(\C#N)c2nc3ccccc3s2)ccc1Cl -1.81%
COCC(C)NS(=O)(=O)c1ccc(N2CCCCS2(=O)=O)cc1 (stereo unspecified) 4.71%
CC(CNC(=O)Cn1c(-c2cccs2)cc2cc(Cl)ccc21)c1ccccc1 (stereo unspecified) -29.4%
COc1cc(OC)cc(-c2ccc3ncc4ccc(=O)n(-c5ccc(N6CCNCC6)c(C(F)(F)F)c5)c4c3c2)c1 7.25%
CCN1C(C(=O)c2ccccc2)=C(NC(=O)c2ccc(Cl)cc2)c2ccccc2S1(=O)=O -5.86%
CCOC(=O)c1ccc(NC(=O)c2sc3nc4n(c(=O)c3c2C)CCC4)cc1 4.87%
Cc1cccc(C)c1NC(=O)c1cc(S(=O)(=O)N2CCCc3ccccc32)ccc1F 0.637%
COc1cccc(C(=O)NCCc2sc(-c3cccc(C)c3)nc2C)c1 8.01%

outcome, inactive:
COc1cccc(-n2c(-c3ccc(C)cc3)cc3c2CC(C)(C)CC3=O)c1
CCC1CN(C(=O)N2CCC(C(=O)NCc3ccco3)CC2)c2cc(C)ccc2O1 (stereo unspecified)
O=C(NCC1CCN(Cc2ccccc2Cl)CC1)c1cc2ccc3cccnc3c2[nH]1
O=C(CC1Oc2ccccc2NC1=O)NCc1ccc(F)cc1 (stereo unspecified)
COc1cccc(NC(=O)c2sc3nc(C)c(C(=O)Nc4ccc(C)cc4C)c(-c4cccs4)c3c2N)c1
Cc1ccc(-c2nc(-c3cc4cccc(OCc5cccc(F)c5)c4oc3=O)no2)cc1
CCOc1ccc(-n2c(Cc3ccccc3)nnc2SCc2nc(-c3cccs3)no2)cc1
Cc1ccc2c(c1)c1c(c(=O)n(-c3ccccc3C)c(=O)n1Cc1cccc(F)c1)n2C
Cc1ccccc1C(=O)NC(=O)Nc1ccc(-n2nc(C(F)(F)F)cc2C(F)(F)F)cc1
CC(C)(C)C(=O)Nc1ccc2nc(SCc3ccccc3)sc2c1
CCCN(CCC)c1cc(C)nc2nc(-c3ccc(Cl)cc3)nn12
Cc1ccc(Nc2nc(C(N)=O)c(NC(=O)c3ccccc3Br)s2)cc1
COc1cc(Cl)c(C)cc1NC(=O)CCn1cnc2onc(-c3ccc(F)cc3)c2c1=O
